In PubChem BioAssay AID1434 (Sanford-Burnham Center for Chemical Genomics, 2008) one finds inhibition data, which are given here for 106 compounds.

The list shows a part of the results. Shown are side measurements of this screen, not its main read-out; they come without a call. Compounds called inactive in the main read-out are mostly missing here.

The assay has as its target Runt-related transcription factor 1 (Homo sapiens) + Core-binding factor subunit beta (Homo sapiens) (UniProt Q01196+Q13951). Put plainly: inhibitors of RUNX1 Runt–CBFb-SMMHC binding, primary screen, biochemical, FRET, Cerulean-Runt, Venus-CBFb-SMMHC, uHTS (AID 1434).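 Note: 0% = DMSO wells and 100% = wells with excess untagged CBFb-SMMHC; inhibitors lower the FRET ratio by blocking Runt binding to CBFb-SMMHC.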 Particulars: Cerulean-Runt/Venus-CBFb-SMMHC FRET ratio 530/480, 1 h; retest duplicate average; at 20 µM; stronger effect = higher value.
Chain of UniProt Q01196 (Q01196 whole entry, looked up): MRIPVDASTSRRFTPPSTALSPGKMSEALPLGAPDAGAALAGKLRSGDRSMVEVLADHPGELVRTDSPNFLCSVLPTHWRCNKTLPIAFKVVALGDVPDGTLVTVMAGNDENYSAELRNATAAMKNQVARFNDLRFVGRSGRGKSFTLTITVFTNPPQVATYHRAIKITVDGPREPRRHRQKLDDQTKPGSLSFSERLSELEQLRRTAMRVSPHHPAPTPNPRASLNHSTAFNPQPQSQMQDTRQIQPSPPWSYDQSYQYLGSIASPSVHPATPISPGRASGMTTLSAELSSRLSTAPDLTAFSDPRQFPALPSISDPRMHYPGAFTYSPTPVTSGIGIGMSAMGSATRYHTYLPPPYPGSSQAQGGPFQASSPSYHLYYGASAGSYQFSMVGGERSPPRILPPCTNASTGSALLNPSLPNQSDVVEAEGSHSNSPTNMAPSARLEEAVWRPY
Chain of UniProt Q01196 (Q13951 whole entry, looked up): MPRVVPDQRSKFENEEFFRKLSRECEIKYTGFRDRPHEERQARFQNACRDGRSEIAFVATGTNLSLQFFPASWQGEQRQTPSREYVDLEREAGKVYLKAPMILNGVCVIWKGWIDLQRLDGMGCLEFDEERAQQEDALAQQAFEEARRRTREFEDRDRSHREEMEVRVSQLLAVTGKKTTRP
Usually inhibition stands for the drop in the measured response relative to a control, in per cent. `N=c1c(C(=O)NCc2ccc(F)cc2)cc2c(=O)n3ccccc3nc2n1Cc1ccco1`: the inhibition is 71.5%.

As to `COc1ccc(C2c3ccc(O)cc3Oc3ncn(CC(C)C)c(=N)c32)cc1` (stereo unspecified), the inhibition came to 65%.

`Nc1n[nH]c2cc(=O)n(-c3ccc(Cl)cc3)nc12`: the inhibition came out at 55.6%.

`O=C(Nc1nccs1)c1ccccc1N=Cc1ccccc1`: the inhibition came out at 60.9%.

Turning to `C/C(=N/NC(=O)c1cccs1)c1c(C)[nH]n(-c2nc3ccccc3s2)c1=O`, the inhibition amounted to 83.1%.

For the compound `CC(C)(C)OC(=O)NCC(=O)Oc1cc2oc(=O)cc(-c3ccccc3)c2cc1Cl`, the inhibition came to 71.5%.

For the compound `CCOC(=O)C1=C(Cc2ccc(Cl)cc2)C(=O)c2ccccc2C1=O`, the inhibition stood at 61.3%.

For the compound `O=C(CSc1ncnc2ccccc12)c1ccco1`, the inhibition is 135%.

For the compound `N#Cc1c(-c2ccccc2Cl)c2c([nH]c1=O)-c1ccccc1OC2`, the inhibition was 70.6%.

For the compound `CCOC(=O)c1cc2c(=O)n3cccc(C)c3nc2n(Cc2ccco2)c1=NC(=O)c1ccccc1`, the inhibition turned out to be 128%.

`Cn1c(NNC(=O)c2cccc3ccccc23)cc(=O)n(C)c1=O`: the inhibition is 105%.

For the compound `CCN(CC)c1ccc2c(C)c(Cl)c(=O)oc2c1`, the inhibition was determined as 70.6%.

For `O=C(NNc1c2ccccc2nc2ccccc12)c1ccc(O)cc1`, the inhibition is 96.8%.

For the compound `CCCCn1nc(NC(=O)c2cccs2)c2cc3cc(OC)ccc3nc21`, the inhibition was 114%.

As for `CCN(CC)c1ccc(/C=N/NC(=O)c2ccco2)c(O)c1`, the inhibition was 83.4%.

For the compound `COc1ccc(Cn2c(O)c(/C=N/NC(=O)c3cccnc3)c3ccccc3c2=O)cc1`, the inhibition was found to be 70.6%.

On to `CCc1ccccc1N1CSC2=C(C#N)C(c3ccccc3F)CC(=O)N2C1` (stereo unspecified), for which the inhibition came to 119%.

With `CC1(C)CC(=O)C2=C(C1)N(CCN1CCOCC1)C1=C(C(=O)CC(C)(C)C1)C2c1cccc(F)c1`, the inhibition amounted to 71.5%.

Consider `C/C(=N\Nc1nc(-c2cc(C)ccc2C)cs1)c1cc2c(ccc3ccccc32)oc1=O`, for which the inhibition turned out to be 71.5%.

As for `N#Cc1cnn2c3c(cnc12)C(=O)N1CCc2ccccc2C1C3` (stereo unspecified), the inhibition was found to be 171%.

In the case of `CC1=C(C(=O)OC(C)C)C(c2cccnc2)C2=C(CC(C)(C)CC2=O)N1` (stereo unspecified), the inhibition stood at 138%.

`Cc1cc2c3c(ccc(C)c3n1)N=CN2c1ccccc1`: the inhibition is 71.5%.

`CNc1sc(C(=O)c2cccs2)c(N)c1-c1nc2ccccc2s1`: the inhibition is 78.7%.

As for `O=c1c2ccccc2[nH]c2ccccc12`, the inhibition was 186%.

As for `CCCCCCc1cc2cc(S(=O)(=O)c3ccc(F)cc3)c(=O)oc2cc1O`, the inhibition was determined as 71.5%.

For `CN(C)c1oc(/C=C/c2ccccc2)nc1C#N`, the inhibition stood at 135%.

As for `CCc1c(C)c2cc(Cl)c(O)c(CN(C)C)c2oc1=O`, the inhibition was 173%.

In the case of `O=C(Nc1cc2c(=O)n(-c3ccc(Oc4ccccc4)cc3)ccc2oc1=O)c1ccccc1`, the inhibition was 144%.

As to `Cc1ccc(CNC(=O)c2cc3c(=O)n4ccccc4nc3n(CC3CCCO3)c2=N)cc1` (stereo unspecified), the inhibition was 71.5%.

Take `CN1CCc2c(sc3c2C(=O)NC(c2cccc(OC(=O)c4cccs4)c2)N3)C1` (stereo unspecified): the inhibition was found to be 143%.

With `Cc1cc(-n2c(=O)c(C#N)cc3c(=O)n4cccc(C)c4nc32)no1`, the inhibition is 71.5%.

Turning to `O=C(c1ccc(Cl)cc1)N1CCN(c2ccc(F)cc2)CC1`, the inhibition is 59.5%.

Consider `CCCn1c(=NC(=O)c2ccc3c(c2)OCO3)c(C#N)cc2c(=O)n3cccc(C)c3nc21`, for which the inhibition is 121%.

On to `Cc1oc2cc(O)ccc2c(=O)c1-c1nncn1-c1ccccc1`, for which the inhibition came to 63.6%.

Consider `N#CC1=C(N)C(C#N)(C#N)[C@H](c2ccoc2)[C@H]2CN(Cc3ccccc3)CC=C12`, for which the inhibition was determined as 76.5%.

Regarding `O=C(c1cc2ccccc2oc1=O)N1CCN(CCc2ccccc2)CC1`, the inhibition came to 84.7%.

For `Cn1c(=O)c(/C=C/c2ccccc2)nc2ccccc21`, the inhibition amounted to 89.9%.

Take `Cc1c(Cc2ccccc2)c(NCCCO)n2c(nc3ccccc32)c1C#N`: the inhibition came out at 81.3%.

As to `CC(=O)Nc1sc2c(c1C(N)=O)CCN(Cc1ccccc1)C2`, the inhibition amounted to 169%.

Consider `COc1cccc(N=c2oc3cc(O)ccc3cc2C(=O)NCC2CCCO2)c1` (stereo unspecified), for which the inhibition came to 70.6%.

For `O=S(=O)(Nc1nc2ccccc2nc1-[n+]1cccc(N=C([O-])c2ccccc2Cl)c1)c1ccccc1`, the inhibition was determined as 116%.

For the compound `COCCn1c(N)c(C(=O)NCC2CCCO2)c2nc3ccccc3nc21` (stereo unspecified), the inhibition was determined as 72.9%.

In the case of `CC1(C)CC(=O)C2=C(C1)N(CCN1CCOCC1)C1=C(C(=O)CC(C)(C)C1)C2c1ccc(Cl)cc1`, the inhibition is 70.6%.

Consider `Cc1ncc(CO)c(/C=N/NC(=O)c2ccc(O)cc2)c1O`, for which the inhibition was 71.5%.

In the case of `Cc1cc(C)c2c(=O)n(CC(=O)Nc3cccc(F)c3)sc2n1`, the inhibition is 55.9%.

For `C=CCn1c(=N)c(C#N)cc2c(=O)n3ccccc3nc21`, the inhibition was determined as 71.5%.

Consider `CN1CC=C2C(C#N)=C(N)C(C#N)(C#N)C(CCc3ccccc3)C2C1` (stereo unspecified), for which the inhibition was determined as 71.5%.

As for `COC(=O)c1ccccc1N/C=C1\CCc2c(c(C)nn2-c2ccccn2)C1=O`, the inhibition came to 53.7%.

Regarding `CCCc1cc(=O)oc2c(CN3CCCC3)c(O)ccc12`, the inhibition worked out at 129%.

Turning to `COc1cccc2c1NC(C(=O)O)C1CC=CC21` (stereo unspecified), the inhibition turned out to be 47.7%.

Turning to `CCCNC(=O)COC(=O)c1cc2c(=O)n3ccccc3nc2s1`, the inhibition was 144%.

On to `CSc1nc(-c2ccc(N(C)C)cc2)c(C#N)c(=O)n1C`, for which the inhibition was found to be 70.6%.

On to `COc1cccc2c(=O)c3cccc(N)c3[nH]c12`, for which the inhibition was -71.3%.

Take `CCN1CCc2c(sc(NC(=S)NC(=O)c3ccc(Cl)cc3)c2C(N)=O)C1`: the inhibition amounted to 110%.

As for `COc1cc(NS(=O)(=O)c2ccc(N/C=C\C(=O)c3ccc(OC)c(OC)c3)cc2)nc(OC)n1`, the inhibition worked out at 108%.

`CCCCCCc1cc2cc(C(=O)NC)c(=N)oc2cc1O`: the inhibition came out at 72.9%.

As to `COCCCn1c(=N)c(C(=O)NCC2CCCO2)cc2c(=O)n3ccccc3nc21` (stereo unspecified), the inhibition turned out to be 72.9%.

Take `COc1cccc(C2C(C#N)=C(C)NC3=C2C(=O)CC(C)(C)C3)c1` (stereo unspecified): the inhibition was determined as 55.2%.

With `Cc1ccc2nc3c(cc(C#N)c(=O)n3-c3nccs3)c(=O)n2c1`, the inhibition amounted to 72.9%.

Consider `CC(Oc1ccc(Cl)cc1Cl)C(=O)NCCCn1ccnc1` (stereo unspecified), for which the inhibition came out at 90.3%.

Turning to `C=CCNC(=O)c1cc2c(=O)n3cc(C)ccc3nc2nc1NCC1CCCO1` (stereo unspecified), the inhibition was 71.5%.

With `OCCNc1nc(-c2ccccc2)c2cc(Cl)ccc2n1`, the inhibition came to 82.6%.

For the compound `N#Cc1c(N)n(-c2cccc(O)c2)c2nc3ccccc3nc12`, the inhibition turned out to be 133%.

With `Cc1ccc(-n2c(=O)c(C#N)cc3c(=O)n4cccc(C)c4nc32)cc1`, the inhibition was 167%.

As for `CCc1c(C)c(C#N)c2nc3ccccc3n2c1NCc1ccco1`, the inhibition was 78.8%.

On to `CCC1(C)Cc2c(sc3[nH]c(=O)[nH]c(=O)c23)CS1` (stereo unspecified), for which the inhibition was determined as 106%.

`CC(C)OC(=O)c1c2nc3ccccc3nc2n2c1[nH]c(=O)c1ccccc12`: the inhibition was found to be 71.5%.

In the case of `CC1(C)CC(=O)C2=C(C1)Nc1[nH]c(=S)[nH]c(=O)c1C2c1ccccc1` (stereo unspecified), the inhibition was 53.4%.

Turning to `CN1CC=C2C(C#N)=C(N)C(C#N)(C#N)[C@H](c3cccs3)[C@H]2C1`, the inhibition is 111%.

`Cc1cc2c(C)cc(=O)oc2c2c1NCCC2`: the inhibition is 72.9%.

Regarding `CC(=O)c1c(N2CCN(CCO)CC2)nc(=S)n(-c2ccccc2)c1C`, the inhibition was found to be 70.6%.

Turning to `CC(=O)Nc1nc2n(n1)C(c1ccc(Cl)cc1)C=C(C)N2` (stereo unspecified), the inhibition is 86.3%.

Take `CCN(CC)Cc1c(O)c(Cl)cc2c(C)c(C)c(=O)oc12`: the inhibition is 153%.

With `CCc1c(C)c2ccc(O)c(CN(C)C)c2oc1=O`, the inhibition was 133%.

For the compound `COc1ccc(-c2cc(C(F)(F)F)n3nc(N)nc3n2)cc1`, the inhibition amounted to 68.1%.

Regarding `Cc1cc(C)c2c(=O)n(CC(=O)N3CCC(Cc4ccccc4)CC3)sc2n1`, the inhibition was determined as 52.7%.

Consider `Cc1c(C)c2cc(Cl)c(O)c(CN3CCN(C)CC3)c2oc1=O`, for which the inhibition was found to be 169%.

In the case of `CCOC(=O)c1cc2c(=O)n3ccccc3nc2n(Cc2ccco2)c1=NC(=O)c1ccccc1OC`, the inhibition turned out to be 125%.

On to `Nc1c(C(=O)NCc2ccco2)c2nc3ccccc3nc2n1CCc1ccccc1`, for which the inhibition was 139%.

For `Cc1c(Br)c(=O)oc2c(Br)c(O)c(O)cc12`, the inhibition came to 71.5%.

In the case of `Cn1c(/C=C(\C#N)C(N)=S)ccc1-c1ccc(Br)cc1`, the inhibition worked out at 70.6%.

As for `CCC(=O)Nc1c(S(=O)(=O)c2ccc(C)cc2)c2nc3ccccc3nc2n1C(C)c1ccccc1` (stereo unspecified), the inhibition stood at 89.2%.

As to `Oc1cc2c(cc1O)C1c3ccc(O)c(O)c3OCC1(O)C2` (stereo unspecified), the inhibition is 55.5%.

On to `COc1cc2cc(C(N)=O)c(N)nc2cc1OC`, for which the inhibition came to 147%.

In the case of `CCOc1ccc(N=c2oc3cc(O)ccc3cc2C(=O)NCC2CCCO2)cc1` (stereo unspecified), the inhibition was 136%.

With `Cc1ccc(-c2cc(-c3ccccc3)c3c(N)c(S(C)(=O)=O)sc3n2)cc1`, the inhibition is 123%.

`CCCOc1c(Br)cc(C2C3=C(CCCC3=O)N(CC)C3=C2C(=O)CCC3)cc1OC`: the inhibition stood at 95.5%.

Turning to `O=C(c1ccccc1)c1cc2ccc(O)cc2oc1=O`, the inhibition was 146%.

For `CCOc1ccc2nc(NCCCNS(=O)(=O)c3ccccc3)c(C#N)cc2c1`, the inhibition was 72.9%.

Take `Nc1c(C(=O)NCc2ccco2)c2nc3ccccc3nc2n1CCc1ccccc1F`: the inhibition was 139%.

For `Cc1ccc(C)n1-c1nccc(-c2ccco2)n1`, the inhibition worked out at 70.6%.

With `COCCNC(=O)Nc1ccc2nc(-c3cccs3)c(-c3cccs3)nc2c1`, the inhibition came out at 64.9%.

With `N#C/C(=C\c1c(N2CCCCCC2)nc2ccccn2c1=O)C(=O)NC1CCS(=O)(=O)C1` (stereo unspecified), the inhibition came out at 71.5%.

In the case of `CCCCc1cc(=O)oc2c(CN3CCCC3)c(O)c(Cl)cc12`, the inhibition is 179%.

Take `Cc1ccc2nc3c(cc(C(=O)NCC4CCCO4)n3C)c(=O)n2c1` (stereo unspecified): the inhibition worked out at 75.3%.

Consider `COC(=O)C1=CN(C)C=C(C(=O)OC)C1c1ccccc1Cl`, for which the inhibition is 71.5%.

On to `Cc1ccccc1OCCn1cc(/C=C(\C#N)C(=O)NCc2ccco2)c2ccccc21`, for which the inhibition is 71.5%.

Take `CCOC(=O)/C=C(\C)Sc1cc(O)c2ccccc2c1O`: the inhibition turned out to be 56.7%.

As for `O=C(Cc1c2ccccc2nc2ccccc12)c1ccccc1`, the inhibition came out at 195%.

Consider `O=C(c1nc2n(n1)C(c1ccc(Cl)cc1)C=C(c1ccccc1)N2)N1CCOCC1` (stereo unspecified), for which the inhibition came out at 71.5%.

Regarding `Cc1cccn2c(=O)c3cc(C(=O)NCC4CCCO4)c(=N)n(Cc4cccnc4)c3nc12` (stereo unspecified), the inhibition came to 72.9%.

As to `Cc1cccn2c(=O)c(/C=C(\C#N)C(=O)NC3CCS(=O)(=O)C3)c(N3CC(C)OC(C)C3)nc12` (stereo unspecified), the inhibition stood at 79.8%.

Turning to `CC(C)OC(=O)CC(=O)CSc1nc2c(cc1C#N)CCCCC2`, the inhibition stood at 76.8%.

With `CC1(C(=O)NNC(=O)c2ccc(=O)oc2)CC1Br` (stereo unspecified), the inhibition is 70.2%.

In the case of `Cc1ccc(-n2c(C)cc(/C=N/NC(=O)Cn3c4ccccc4c(=O)c4ccccc43)c2C)cc1`, the inhibition came to 135%.

For the compound `Fc1ccccc1N1CC(c2ccccc2)C(c2cccs2)=N1` (stereo unspecified), the inhibition is 67%.
